Broadly, the EC50 (read off the curve) is the concentration giving half of the maximal effect. For orientation: Kd means the constant that tells how readily two partners part at equilibrium. The koff is a measure of how fast the partners let go of each other. As usually defined, the kon is the rate constant with which the complex forms.

Data on eight molecules can be found in patent US20250297030A1 (SHANDONG SIMCERE BIOPHARMACEUTICAL, published 2025).

The target in assay [1] is T1, Human MUC17 ECD4131-his (His-tagged human MUC17 protein extracellular domain fusion protein) (human, UniProt Q685J3 partial chain).
T1 construct: a truncation of the extracellular domain; also called human MUC17-his protein; human MUC17-His
In words: ELISA on coated human MUC17 ECD4131-his, OD450. As for the experimental part: (§1) A human MUC17-his protein was diluted with PBS to a final concentration of […] and then added to a 96-well ELISA plate at 50 µL/well. The plate was incubated at 4° C. overnight. The next day, the plate was washed 2 times with PBST, and a blocking buffer [PBS+2% (w/w) BSA] was added for blocking at room temperature for 2 h. The blocking buffer was discarded, and the recombinant antibody and positive and negative control antibody with a starting concentration of 100 nM serially diluted by 3 folds were added at 50 μL/well. After incubation at 37° C. for 1 h, the plate was washed 3 times with PBST. A horseradish peroxidase (HRP)-labeled secondary antibody (purchased from Merck, Cat. No. AP113P) was added for incubation at 37° C. for 1 h, and the plate was washed 5 times with PBST. A TMB substrate was added at 50 μL/well for incubation at room temperature for 10 min, and then a stop solution (1.0 M HCl) was added at 50 µL/well. The OD₄₅₀ nm values were read by an ELISA plate reader (Multimode Plate Reader, EnSight, purchased from Perkin Elmer).
(In general: An ELISA detects its analyte on a solid surface through an enzyme-linked reagent.)

Assay [2] concerns the target T1, Human MUC17 ECD4131-his (His-tagged …). In words: SPR (Biacore 8K), antibody captured on Protein A. As for the experimental part: (§2) The strength of antibody-antigen binding was assayed with a BIAcore 8K instrument using an Protein A capture method. First, Protein A was immobilized onto a CM4 chip (purchased from GE, BR-1005-34) using an amino coupling method. According to the instruction of the Amine Coupling Kit (purchased from GE, BR100633), NHS and EDC were mixed with HBS-EP+ pH 7.4 as a mobile phase to activate the chip for about 600 s; the Protein A was diluted to 50 µg/mL with 10 mM sodium acetate (pH 4.5) and injected for 600 s, and finally, the remaining activated sites were blocked with ethanolamine. Then, the affinity of the antibody for the antigen was assayed using a multi-cycle kinetic method; in each cycle, first, the antibody to be tested was captured using the Protein A chip, and then a single concentration of antigen protein was injected. The association and dissociation processes of the antibody with the antigen protein were recorded, and finally, the chip was regenerated using Glycine pH 1.5, wherein the mobile phase was HBS-EP+ (10 mM HEPES, 150 mM NaCl, 3 mM EDTA, 0.05% surfactant P20), the flow rate was […], the regeneration time was 30 s, and the assay temperature was 25° C. Finally, according to a 1:1 binding model, the data were analyzed, and the antibody-antigen binding kinetics parameters, including the association rate constant Ka, the dissociation rate constant Kd, the equilibrium dissociation constant KD, and the maximum binding signal Rmax, were fitted. The association rate (Ka), dissociation rate (Kd), and binding affinity (KD) of the recombinant antibodies Lab315-huFc, Lab316-huFc, Lab320-huFc, Lab331-huFc, and Lab332-huFc with the human MUC17 protein are shown in Table 5.
After the finally obtained various humanized antibodies were expressed and purified, the affinity of the humanized antibodies for the human MUC17 protein was assayed according to the method in Example 3.6.
(In general: Surface plasmon resonance follows binding to a sensor surface in real time, without labels.)

Assay [3] concerns the target T2, Cyno MUC17 ECD3577-his (His-tagged cynomolgus monkey MUC17 protein extracellular domain fusion protein) (cynomolgus monkey).
T2 construct: also called monkey MUC17-his protein; monkey MUC17 ECD3577-His
T2 chain: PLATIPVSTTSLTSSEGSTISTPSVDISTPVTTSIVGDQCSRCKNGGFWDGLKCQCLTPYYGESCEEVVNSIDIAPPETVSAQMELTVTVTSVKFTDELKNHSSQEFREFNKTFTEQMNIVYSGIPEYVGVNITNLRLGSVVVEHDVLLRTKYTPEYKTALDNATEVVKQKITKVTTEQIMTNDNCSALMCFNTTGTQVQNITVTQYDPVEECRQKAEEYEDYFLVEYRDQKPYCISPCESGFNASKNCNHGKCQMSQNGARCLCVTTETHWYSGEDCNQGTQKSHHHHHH
The experiment in a line: ELISA on coated monkey MUC17 ECD3577-His, OD450. Here is the method: as §1
The monkey MUC17-his protein was subjected to ELISA and data analysis according to the method described in Example 3.2. The recombinant antibodies Lab315-huFc, Lab316-huFc, Lab320-huFc, Lab331-huFc, and Lab332-huFc have a relatively good binding activity with the monkey MUC17-his protein.

Assay [4] deals with T1, Human MUC17 ECD4131-his (His-tagged …). The experiment in a line: SPR (Biacore 8K), antibody captured on Protein A. As for the experimental part: as §2
This is another data set of the same source.

Assay [5] concerns the target human MUC17 on NUGC4 endogenous tumor cells (human, UniProt Q685J3). In words: FACS on NUGC4 cells, MFI. As for the experimental part:
Then a complete medium was added to stop the digestion, and the cells were blown into a single cell suspension. After counting, the cells were centrifuged, and the cell pellet was resuspended to 2×10⁶ cells/mL in an FACS buffer (PBS+2% fetal bovine serum), and added to a 96-well FACS reaction plate at 100 µL/well. The plate was centrifuged, and the supernatant was discarded. An antibody sample to be tested (diluted in a 3-fold gradient from a starting concentration of 100 nM) was added at 50 µL/well and uniformly mixed with the cells, and the mixture was incubated at 4° C. for 1 h. […] The results were tested and analyzed by FACS (FACS Canto™, purchased from BD) after the plate was centrifuged and washed 3 times with a PBS buffer and resuspended with 100 μL of PBS. Data analysis was performed by software (FlowJo) to obtain the mean fluorescence intensity (MFI) of the cells. Then, analysis was performed by software (GraphPad Prism8), data were fitted, and EC50 values were calculated. As shown in FIGS. 3A-3B, the recombinant antibodies Lab315-huFc, Lab316-huFc, Lab320-huFc, Lab331-huFc, and Lab332-huFc are all capable of binding specifically to NUGC-4 cells.
The preparation of the assay cells and the antibodies to be tested and the assay were performed with reference to Example 3.4. The humanized antibodies all have a relatively good binding activity with endogenous cells NUGC4, maintaining the binding ability of the corresponding recombinant antibodies before humanization.

In assay [6] the target is T3, monkey MUC17 fragment on FlpinCHO-Cyno(3597-3964)-D2 cells (monkey).
T3 chain: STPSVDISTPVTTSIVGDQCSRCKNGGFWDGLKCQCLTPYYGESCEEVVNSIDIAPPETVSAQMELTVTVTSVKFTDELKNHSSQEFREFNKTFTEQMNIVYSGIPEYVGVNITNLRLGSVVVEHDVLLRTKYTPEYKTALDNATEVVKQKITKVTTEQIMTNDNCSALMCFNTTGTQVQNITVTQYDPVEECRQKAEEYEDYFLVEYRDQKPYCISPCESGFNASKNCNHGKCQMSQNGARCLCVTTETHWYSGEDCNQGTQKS
In words: FACS on FlpinCHO-Cyno(3597-3964)-D2 cells, MFI.

Like-named read-outs stand apart in the source and are kept apart here.

B1: Lab332-huFc (Fc fusion)
chain: EVQLQASGGGSVQAGGSLRVSCAASGDTFSRGSWGWFRQRPGKEREAVALISSDGWTFYADSVKGRFTISQDNTKNTLYLQMISLRPEDTAMYYCAASVLVLRTLNPKAWHHWGQGTQVTVSS[omitted - human IgG1 Fc with C220S (EU numbers)]
notes: Nanobody expressed in human Fc fusion form
For the molecule B1, the “EC50 (read off the curve)” value in assay [1] was about 0.06 nM. In assay [2], the Kd was determined as 0.236 nM, the koff was 0.000119 s⁻¹ and the on-rate constant (kon) stood at 504000 M⁻¹ s⁻¹. Also, the “EC50 (read off the curve)” value in assay [3] is about 0.06 nM. In assay [4], this molecule registered a Kd of 0.239 nM, an off-rate constant (koff) of 0.000118 s⁻¹ and an on-rate (kon) of 491000 M⁻¹ s⁻¹.

B2: Lab316-huFc (Fc fusion)
chain: DVQLQASGGGSVQAGGSLRLSCAASDNTFSRGSMSWFRQAPGKEREGVAIISSDGWTGYADSVKGRFTISQDNAKNTLYLQMIGLKPDDTAMYYCAASFLVLRALNPKAWHYWGQGTQVTVSS[omitted - human IgG1 Fc with C220S (EU numbers)]
notes: as for B1
In the case of B2, the “EC50 (read off the curve)” value in assay [1] is about 0.02 nM. Moreover, in assay [2], the Kd is 0.12 nM, the koff came out at 3.28e-05 s⁻¹ and the kon was 273000 M⁻¹ s⁻¹. In addition, the “EC50 (read off the curve)” value in assay [3] was about 0.01 nM. In assay [4], the Kd was determined as 0.129 nM, the koff stood at 3.43e-05 s⁻¹ and the kon amounted to 265000 M⁻¹ s⁻¹.

B3: Lab320-huFc (Fc fusion)
chain: DVQLQASGGGSVQSGGSLRLSCAASGFPSSRGTMAWFRQAPGREREGVAFINSDGRTSYAESVKGRFTISRDNALSTLWLQMNSLKPEDTGMYYCAASLLYLMTVNAAAYPYWGQGTQVTVSS[omitted - human IgG1 Fc with C220S (EU numbers)]
notes: as for B1
For the molecule B3, the “EC50 (read off the curve)” value in assay [1] is about 0.05 nM. Also, in assay [2], the Kd turned out to be 0.527 nM, the koff was found to be 0.000103 s⁻¹ and the kon amounted to 196000 M⁻¹ s⁻¹. In assay [3], the concentration for a half-maximal effect (EC50 (read off the curve)) was about 0.06 nM. For the same molecule, in assay [4], the Kd turned out to be 0.556 nM, the koff turned out to be 0.000106 s⁻¹ and the kon stood at 190000 M⁻¹ s⁻¹.

B4: SCR-7724-001-H5-hFc (Fc fusion)
chain: EVQLVESGGGLVQPGRSLRLSCAASGDITRRCMGWFRQAPGKEREGVAGISEDGITIYADSVKGRFTISKDNAKNSLYLQMNSLRAEDTALYSCAASILNRVGCRQLSYEYIYRGQGTMVTVSS[omitted - human IgG1 Fc with C220S (EU numbers)]
notes: VHH-huFc (C220S) order with human hinge and Fc; also called SCR-7724 humanized antibody
As to B4, in assay [2], the equilibrium dissociation constant (Kd) was found to be 0.306 nM, the koff was 4.02e-05 s⁻¹ and the kon came to 131000 M⁻¹ s⁻¹. Also, the “EC50 (read off the curve)” value in assay [5] is about 0.1 nM. Besides, in assay [6], the “EC50 (read off the curve)” value is about 2 nM.

B5: SCR-7724-001-H8-hFc (Fc fusion)
chain: EVQLVESGGGLVQPGRSLRLSCAASGDITRRCMGWFRQAPGKEREGVAGISEDGITGYADSVKGRFTISRDNAKNSLYLQMNSLRAEDTALYYCAASILNRVGCRQLSYEYIYRGQGTMVTVSS[omitted - human IgG1 Fc with C220S (EU numbers)]
notes: as for B4
Take B5: in assay [2], the Kd came out at 23.5 nM, the off-rate (koff) amounted to 0.0017 s⁻¹ and the kon came to 72400 M⁻¹ s⁻¹. In assay [5], the “EC50 (read off the curve)” value is about 0.1 nM. In addition, in assay [6], the “EC50 (read off the curve)” value was about 2 nM.

B6: SCR-7724-001-H11-hFc (Fc fusion)
chain: EVQLVESGGGLVQPGRSLRLSCAASGDITRRCMGWFRQAPGKEREGVAGISEDGITGYADSVKGRFTISKDNAKNSLYLQMNSLRAEDTALYSCAASILNRVGCRQLSYEYIYRGQGTQVTVSS[omitted - human IgG1 Fc with C220S (EU numbers)]
notes: as for B4
In assay [2], B6 returned a Kd of 0.697 nM, a koff of 7.63e-05 s⁻¹ and an association rate constant (kon) of 109000 M⁻¹ s⁻¹. Besides, the “EC50 (read off the curve)” value in assay [5] was about 0.1 nM. The “EC50 (read off the curve)” value in assay [6] was about 3 nM.

B7: SCR-7724-001-H9-hFc (Fc fusion)
chain: EVQLVESGGGLVQPGRSLRLSCAASGDITRRCMGWFRQAPGKEREGVAGISEDGITGYADSVKGRFTISRDNAKNSLYLQMNSLRAEDTALYSCAASILNRVGCRQLSYEYIYRGQGTMVTVSS[omitted - human IgG1 Fc with C220S (EU numbers)]
notes: as for B4
In assay [2], B7 registered a Kd of 6.1 nM, a koff of 0.000583 s⁻¹ and a kon of 95600 M⁻¹ s⁻¹. Further, the “EC50 (read off the curve)” value in assay [5] was about 0.1 nM. In assay [6], the “EC50 (read off the curve)” value is about 2 nM.

B8: SCR-7724-001-H10-hFc (Fc fusion)
chain: EVQLVESGGGLVQPGRSLRLSCAASGDITRRCMGWFRQAPGKEREGVAGISEDGITGYADSVKGRFTISKDNAKNSLYLQMNSLRAEDTALYSCAASILNRVGCRQLSYEYIYRGQGTMVTVSS[omitted - human IgG1 Fc with C220S (EU numbers)]
notes: as for B4
B8: in assay [2], binding was characterised by a dissociation constant (Kd) of 0.815 nM, the koff worked out at 8.58e-05 s⁻¹ and the kon was found to be 105000 M⁻¹ s⁻¹. The “EC50 (read off the curve)” value in assay [5] is about 0.1 nM. The “EC50 (read off the curve)” value in assay [6] was about 2 nM.
